Data from the RNAGym collection of RNA variant scans (doi:10.1073/pnas.2313332121).
Variants at the background level are over-represented here.

B1: TPR 5TU (parent)
chain: GGAUCUUCUCGAUCUAACAAAAAAGACAAAUCUGCCACAAAGCUUGAGAGCAUCUUCGGAUGCAGAGGCGGCAGCCUUCGGUGGCGCGAUAGCGCCAACGUUCUCAACUAUGACACGCAAAACGCGUGCUCCGUUGAAUGGAGUUUAUCAUG

Variants of: B1
Experiment: polymerase ribozyme fitness, log enrichment relative to wild type (log ratio); higher = more active; in vitro selection for triplet polymerase activity
How it was run: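 One round of in vitro selection, in triplicate, was applied to PCR-built, transcribed mutant libraries of each subunit of a heterodimeric triplet polymerase ribozyme. The steps were annealing with a biotinylated primer, partner subunit and triplets, incubation frozen at −7 °C, gel excision of extended constructs, streptavidin-bead capture and RT-PCR. Fitness is the logarithm, base 2, of genotype enrichment over wild-type enrichment from inverse-variance-weighted replicate averages of Illumina-sequenced inputs and outputs, keeping genotypes with ≥10 input reads and ≥1 read per output.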

Variant | polymerase ribozyme fitness (log ratio)
G25U G83A C95A A138U U139C | ≤ -4.2
G25U G84A | -3.07
G25U G88C G141C | ≤ -4.2
G25U G92A | ≤ -4.2
G25U U45A G68C C87A A107C U148A | ≤ -4.2
G25U U55G A122U | -3.1
G25U U56A G84U C95A C96U A119C G141U U148C C149A | ≤ -4.2
G25U U61G | -2.3
G25U U61G A66C C87U A137G | ≤ -4.2
G25U U77C C85U G117A A119C | ≤ -4.2
A26C A28U A39C A73U G88A C95U C108G G128U G136A | ≤ -4.2
A26C A28U A47C | ≤ -4.2
A26C A29G U33C | ≤ -4.2
A26C A29U C36G A73U G84U G94C A110U | ≤ -4.2
A26C A30C U45A C54G G92A U104G A147G | ≤ -4.2
A26C A30G | ≤ -4.2
A26C A30U A41G A52U G124A | ≤ -4.2
A26C A30U G58U G84A G128A A150C | ≤ -4.2
A26C A37G A52U C93A A110G C118U G136C | ≤ -4.2
A26C A37G A60U U90A G100C G141A C149U | ≤ -4.2
A26C A37G U55G C87A | ≤ -4.2

Variant | polymerase ribozyme fitness (log ratio)
A26C A40G U61A A66C C72A C79G | ≤ -4.2
A26C A40G U61G C96U A115G | ≤ -4.2
A26C A41C A49C G62C A138G | ≤ -4.2
A26C A41G U77G | ≤ -4.2
A26C A41U C76U U102G G124A | ≤ -4.2
A26C A47G C63A A91C A97U A98G A138U | ≤ -4.2
A26C A49C | ≤ -4.2
A26C A49C A52U A73G U148A A150C | ≤ -4.2
A26C A49C C85U C96U C99G | ≤ -4.2
A26C A49G G50C A89U G92U U134C | ≤ -4.2
A26C A49U G59A | ≤ -4.2
A26C A52C | -3.22
A26C A52C C54A C114A C129G U134A | ≤ -4.2
A26C A52C C85A C96G C123U | ≤ -4.2
A26C A52C U55A G58C C96A A138C U139A A142C | ≤ -4.2
A26C A52U G86U C99G A138G A150U | ≤ -4.2
A26C A60U A107C A115G | ≤ -4.2
A26C A64C G68C U90C C95U U139A G143U | ≤ -4.2
A26C A64G G83U C85G A115G | ≤ -4.2
A26C A66C G81C G83C | -4.1
A26C A91C A97U C105G | ≤ -4.2

Variant | polymerase ribozyme fitness (log ratio)
A26C A91G G136C | ≤ -4.2
A26C C27A A41U C96G | ≤ -4.2
A26C C27G C63A | ≤ -4.2
A26C C27G C63U A73U C93A G128U | ≤ -4.2
A26C C32A U53G U56A C75U U104A U111C A120G | ≤ -4.2
A26C C32A U53G U101A A107G | ≤ -4.2
A26C C35A A37U G88A C105A | ≤ -4.2
A26C C35A C51U A98U C108G U151G | ≤ -4.2
A26C C35U C108U | ≤ -4.2
A26C C35U G88U C96G C108U G143A | ≤ -4.2
A26C C36A A37U A66G U90C | ≤ -4.2
A26C C36A U44G U55A G140C | -4.19
A26C C36G | ≤ -4.2
A26C C36G C99G A106C A107U U109G U148G | ≤ -4.2
A26C C36U G58C C95U A110U U127G A150U | ≤ -4.2
A26C C51U A52C U55A A107G C123U | ≤ -4.2
A26C C51U A66G A97G U101G U144G | ≤ -4.2
A26C C57A A121C U148G | ≤ -4.2
A26C C57U A91C | ≤ -4.2
A26C C63U C85A A120U | -3.53
A26C C76A C87U C103G C116U | ≤ -4.2

Variant | polymerase ribozyme fitness (log ratio)
A26C C79A C87A U134C A150U | ≤ -4.2
A26C C85A G94C | -1.83
A26C C87A A91G A120U U139A | ≤ -4.2
A26C C93G C123U | ≤ -4.2
A26C C93G U139G G140U | -4.11
A26C C93U C129A U151C | ≤ -4.2
A26C C93U G128U | ≤ -4.2
A26C C96A A120G G124U | -2.02
A26C C105U | -2.13
A26C G42U C75G G86U U146G U151G | ≤ -4.2
A26C G46A C54U U56A G92C C95U C99G A115U U135C | ≤ -4.2
A26C G46C C132G | ≤ -4.2
A26C G48A C85U C105U | ≤ -4.2
A26C G48C U82C C85G A97C | ≤ -4.2
A26C G50A G74C U102G | ≤ -4.2
A26C G50A G86A C96U A137G | ≤ -4.2
A26C G50C C85U C87A A121G U151A | ≤ -4.2
A26C G50U C54U C96G | -3.92
A26C G59U A60C C75U G80C U102A A115G A120C | ≤ -4.2
A26C G59U A89C A113G C132G G141U | ≤ -4.2
A26C G62U A64G C75A C85G U90G A97U C118G C125G | ≤ -4.2
